# Data reported in the supplement of paper PMC4604168 (melanoma cell lines).
# Some of the results follow. Single values are uncertain, as repeats are few or missing.
# Experiments:
# Test in all cases: cell count relative to DMSO control; melanoma cells; higher = more viable cells
# Details in all cases: library dose: standard library concentration; 72 h; first compound 2 µM
# G361 = tested on: G361
# IPC-298 = tested on: IPC-298
# IST-MEL1 = tested on: IST-MEL1
# LB2518-MEL = tested on: LB2518-MEL
# LOXIMVI = tested on: LOXIMVI
# MEL-HO = tested on: MEL-HO
# MZ2-MEL = tested on: MZ2-MEL
# MeWo = tested on: MeWo
# RPMI7951 = tested on: RPMI7951
# RVH-421 = tested on: RVH-421
# SkMel28 = tested on: SkMel28
# SkMel2 = tested on: SkMel2
# SkMel30 = tested on: SkMel30
# SkMel5 = tested on: SkMel5
# UACC257 = tested on: UACC257
# UACC62 = tested on: UACC62
# WM115 = tested on: WM115
# WM1716 = tested on: WM1716
# WM1745 = tested on: WM1745
# WM3526 = tested on: WM3526
# 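Further: cells treated in 1,536-well plates, then fixed and DAPI-stained, with nuclei counted from automated high-throughput microscope images.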
SMILES,cell count (G361) [%],cell count (IPC-298) [%],cell count (IST-MEL1) [%],cell count (LB2518-MEL) [%],cell count (LOXIMVI) [%],cell count (MEL-HO) [%],cell count (MZ2-MEL) [%],cell count (MeWo) [%],cell count (RPMI7951) [%],cell count (RVH-421) [%],cell count (SkMel28) [%],cell count (SkMel2) [%],cell count (SkMel30) [%],cell count (SkMel5) [%],cell count (UACC257) [%],cell count (UACC62) [%],cell count (WM115) [%],cell count (WM1716) [%],cell count (WM1745) [%],cell count (WM3526) [%]
C[C@@H](N)c1ccc(C(=O)Nc2ccnc3[nH]ccc23)cc1 + COCC[n+]1c2c(n(Cc3cnccn3)c1C)C(=O)c1ccccc1C2=O [YM155] (partner dose 0.002 µM),102,54.4,46.4,25.1,106,63.2,16.3,26.2,29.2,43.7,48.4,20.5,46.2,30.1,28.2,56,88.6,34.2,69.9,56.9
C[C@@H](N)c1ccc(C(=O)Nc2ccnc3[nH]ccc23)cc1 + Cc1cc(N2CCOCC2)cc2[nH]c(-c3c(NC[C@@H](O)c4cccc(Cl)c4)cc[nH]c3=O)nc12 [BMS536924] (partner dose 1 µM),54.3,97.2,81.3,108,60.8,76,57.4,54.5,33.3,61.1,84.3,71.9,85,53.3,62.9,92.6,85.5,47.7,22.5,67
C[C@@H](N)c1ccc(C(=O)Nc2ccnc3[nH]ccc23)cc1 + C#Cc1cccc(Nc2ncnc3cc(OCCOC)c(OCCOC)cc23)c1 [erlotinib] (partner dose 4 µM),86.7,72.1,76.3,89.2,75.6,42.4,43.3,86.6,43,66.4,72.7,110,85.4,56.1,93.3,67.7,66.4,63.4,41,104
C[C@@H](N)c1ccc(C(=O)Nc2ccnc3[nH]ccc23)cc1 + Cc1cc(Nc2cc(N3CCN(C)CC3)nc(/C=C/c3ccccc3)n2)n[nH]1 [ENMD2076] (partner dose 0.2 µM),86.4,84,82.4,78.6,81.1,50.2,52.9,67.8,42.4,46.4,56.2,91.9,94.1,58,41.1,76.9,48.5,30.3,43.5,87.6
C[C@@H](N)c1ccc(C(=O)Nc2ccnc3[nH]ccc23)cc1 + COc1ccc(Cl)c(Nc2nc3ccccc3nc2NS(=O)(=O)c2cccc(NC(=O)C(C)(C)N)c2)c1 [XL147] (partner dose 4 µM),79,83.6,61.1,105,87.3,37.2,39.3,61.5,63.6,46.8,111,80.5,87.4,58.5,42.5,91.3,89.4,63.5,44.9,82.2
C[C@@H](N)c1ccc(C(=O)Nc2ccnc3[nH]ccc23)cc1 + NC(=O)c1ccc(N(C(N)=O)c2c(F)cccc2F)nc1-c1ccc(F)cc1F [VX702] (partner dose 2 µM),103,82.5,99.6,151,136,70.8,56,73.7,68.9,41.9,98.2,99.1,81.3,68.2,77.7,76.5,97.5,82.5,74.9,96
CCCCCCCCCCCCCCCCCCOP(=O)([O-])OC1CC[N+](C)(C)CC1 [Perifosine] + COc1ccc(Cl)c(Nc2nc3ccccc3nc2NS(=O)(=O)c2cccc(NC(=O)C(C)(C)N)c2)c1 [XL147] (partner dose 4 µM),83.7,86.4,78.4,90.1,129,79.2,113,110,18.3,93.5,88.3,119,91.3,102,89.1,113,91.7,123,82.8,101
CCCCCCCCCCCCCCCCCCOP(=O)([O-])OC1CC[N+](C)(C)CC1 [Perifosine] + CN(c1ncccc1CNc1nc(Nc2ccc3c(c2)CC(=O)N3)ncc1C(F)(F)F)S(C)(=O)=O [PF562271] (partner dose 0.4 µM),115,97,95.9,92.1,62.9,44.5,111,91.1,6.06,116,109,113,87.4,95.9,86.3,58,87.6,79.9,88.3,90.9
C[C@@H](N)c1ccc(C(=O)Nc2ccnc3[nH]ccc23)cc1 + OCc1c[nH]c2ccccc12 [Indole-3-carbinol] (partner dose 4 µM),106,112,94.7,93.7,117,73.1,55.2,86.5,59.6,50.1,123,98.2,110,90.3,74.6,78.2,112,43.7,47.1,103
CCCCCCCCCCCCCCCCCCOP(=O)([O-])OC1CC[N+](C)(C)CC1 [Perifosine] + O=C(/C=C/c1cccnc1)NCCCCC1CCN(C(=O)c2ccccc2)CC1 [FK866] (partner dose 0.05 µM),3.25,31.3,50.1,66.5,106,44,37.4,107,85.2,36.3,80.1,14.2,137,128,101,107,104,95.9,108,113
CCCCCCCCCCCCCCCCCCOP(=O)([O-])OC1CC[N+](C)(C)CC1 [Perifosine] + CCCS(=O)(=O)Nc1ccc(F)c(C(=O)c2c[nH]c3ncc(Cl)cc23)c1F [PLX4720] (partner dose 0.4 µM),82.8,78.8,102,121,94.5,113,85.3,94.7,34.6,77.1,56.7,113,82.6,89.7,113,47.4,107,81.7,103,70.1
Cn1sc(=O)n(Cc2ccccc2)c1=O + CN(NC(=O)CC(=O)NN(C)C(=S)c1ccccc1)C(=S)c1ccccc1 [STA4783] (partner dose 0.03 µM),30.5,90.2,22.9,33.9,56.4,95.2,94.8,24.6,83.5,63.6,33.4,89.4,121,80.2,119,69.5,46.2,82.4,48.1,105
Cn1sc(=O)n(Cc2ccccc2)c1=O + Cc1nc(Nc2ncc(C(=O)Nc3c(C)cccc3Cl)s2)cc(N2CCN(CCO)CC2)n1 [dasatanib] (partner dose 0.02 µM),74.6,99.2,79.5,87.4,14.3,79.7,63.5,80.8,33.8,63.8,69.6,87.8,103,62.3,86.4,68.1,65.3,77.7,42.7,79.5
Cn1sc(=O)n(Cc2ccccc2)c1=O + CC(=O)O[C@@]12CO[C@@H]1C[C@H](O)[C@@]1(C)C(=O)[C@H](O)C3=C(C)[C@@H](OC(=O)[C@H](O)[C@@H](NC(=O)OC(C)(C)C)c4ccccc4)C[C@@](O)([C@@H](OC(=O)c4ccccc4)[C@H]21)C3(C)C [Docetaxel] (partner dose 0.0005 µM),20,47.1,46.2,54.1,62.3,47.7,47.4,30.2,23.2,67.7,18.1,29,51.2,37.9,75.7,59.3,58.4,34.1,45.7,42.9
C[C@@H](N)c1ccc(C(=O)Nc2ccnc3[nH]ccc23)cc1 + C=CCn1c(=O)c2cnc(Nc3ccc(N4CCN(C)CC4)cc3)nc2n1-c1cccc(C(C)(C)O)n1 [MK1775] (partner dose 0.1 µM),58,77.1,88.2,47.8,88.7,79.5,67.9,69.8,39.1,50.9,44.9,77.4,59.3,45,71.8,56.7,53.5,45.9,26.5,59.2
CCCCCCCCCCCCCCCCCCOP(=O)([O-])OC1CC[N+](C)(C)CC1 [Perifosine] + Cc1ccc(Nc2nccc(N(C)c3ccc4c(C)n(C)nc4c3)n2)cc1S(N)(=O)=O [Pazopanib] (partner dose 2 µM),62.6,58.1,80,74.5,70.1,72.9,71.5,87.6,47.3,77.3,85.4,80,66.9,80.6,73.7,62,80.6,70.7,88.1,70.1
CCCCCCCCCCCCCCCCCCOP(=O)([O-])OC1CC[N+](C)(C)CC1 [Perifosine] + Clc1ccc(Nc2nnc(Cc3ccncc3)c3ccccc23)cc1 [vatalanib] (partner dose 10 µM),79.2,78.4,81.5,105,90.3,80.9,92.1,112,38.4,114,85.1,86.9,102,95.3,85.8,109,114,98.2,64.1,99.2
CCCCCCCCCCCCCCCCCCOP(=O)([O-])OC1CC[N+](C)(C)CC1 [Perifosine] + Cn1c(Nc2ccc(C(F)(F)F)cc2)nc2cc(Oc3ccnc(-c4ncc(C(F)(F)F)[nH]4)c3)ccc21 [CHIR265] (partner dose 0.4 µM),26.5,40.6,72.6,38.5,58.7,66.2,63.2,63.7,16.7,47.5,31.5,50.8,56.4,28.1,72.1,47.8,30.8,64.5,49.7,38.1
